Among all 310,000 compounds or so, about 2,200 (0.71%) showed an effect of 50% or more. The effect is printed as a negative number. The list shows a part of the results.
The molecules below were run against human ether-à-go-go-related gene (hERG) potassium channel (human, UniProt Q12809) (assay: primary screen, population patch clamp on CHO cells stably expressing hERG).
Sequence of human ether-à-go-go-related gene (hERG) potassium channel (Q12809 whole entry, looked up): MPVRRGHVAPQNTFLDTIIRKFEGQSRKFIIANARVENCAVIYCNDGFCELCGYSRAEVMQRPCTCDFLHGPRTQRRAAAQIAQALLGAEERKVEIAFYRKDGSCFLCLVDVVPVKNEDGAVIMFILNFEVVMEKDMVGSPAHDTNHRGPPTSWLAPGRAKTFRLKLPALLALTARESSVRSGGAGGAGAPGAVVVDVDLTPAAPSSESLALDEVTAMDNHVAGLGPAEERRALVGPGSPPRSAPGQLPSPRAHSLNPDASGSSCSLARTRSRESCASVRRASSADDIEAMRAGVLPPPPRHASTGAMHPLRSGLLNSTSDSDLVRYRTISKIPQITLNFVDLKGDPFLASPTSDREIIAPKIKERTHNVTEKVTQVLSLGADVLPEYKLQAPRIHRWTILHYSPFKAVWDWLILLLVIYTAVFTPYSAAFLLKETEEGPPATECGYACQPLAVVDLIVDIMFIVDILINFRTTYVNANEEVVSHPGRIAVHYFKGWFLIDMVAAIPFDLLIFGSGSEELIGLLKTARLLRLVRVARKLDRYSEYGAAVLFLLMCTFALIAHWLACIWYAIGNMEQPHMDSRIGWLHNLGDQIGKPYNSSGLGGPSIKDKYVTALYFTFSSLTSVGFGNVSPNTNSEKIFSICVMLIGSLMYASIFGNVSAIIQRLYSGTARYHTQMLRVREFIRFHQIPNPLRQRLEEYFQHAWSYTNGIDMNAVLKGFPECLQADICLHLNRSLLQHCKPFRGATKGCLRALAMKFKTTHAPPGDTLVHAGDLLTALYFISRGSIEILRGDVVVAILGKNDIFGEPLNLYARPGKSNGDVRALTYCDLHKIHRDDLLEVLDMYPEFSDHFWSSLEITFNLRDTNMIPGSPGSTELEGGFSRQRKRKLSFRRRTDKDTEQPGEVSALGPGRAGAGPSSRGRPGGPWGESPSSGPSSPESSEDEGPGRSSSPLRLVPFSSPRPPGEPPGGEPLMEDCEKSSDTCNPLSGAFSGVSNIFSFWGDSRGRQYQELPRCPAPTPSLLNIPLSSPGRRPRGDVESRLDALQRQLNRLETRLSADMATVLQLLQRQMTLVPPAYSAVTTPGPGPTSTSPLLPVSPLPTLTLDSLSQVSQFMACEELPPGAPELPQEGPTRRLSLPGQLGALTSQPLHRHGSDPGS

SMILES | hERG current change (%, negative = inhibition) at 1uM [%]
O=C(Oc1c(CN2CCOCC2)cc(Cl)c2cccnc12)c1ccccc1 | 8.02
CN(C)CCCNC(=O)N1c2ccccc2C=Cc2ccccc21.Cl | 15.7
CCCCn1c(N)c(N(CC(C)C)C(=O)c2cc(Cl)nc3ccccc23)c(=O)[nH]c1=O | 5.82
Cc1cccc(CN2[C@@H](CC(C)C)COCCS2(=O)=O)c1 | 19.4
CC(C)c1nc(Cl)c(C#N)c2c1COC(C)(C)C2 | 7.04
Cc1cc(C)nc(/N=C(\N)N2CCc3ccccc32)n1 | -4.32
O=[N+]([O-])c1ccccc1-c1ccc(C(=S)N2CCCCC2)o1 | 21.6
COc1ccc2c(C)c(CC(=O)N3CCN(C(=O)C4COc5ccccc5O4)CC3)c(=O)oc2c1C (stereo not drawn) | 11.8
Cc1c(-c2ccccc2)c(=O)oc2cc(O)ccc12 | 6.34
CCN(C(=O)CSc1nnc(-c2ccc(Cl)cc2)n1C)C1CCS(=O)(=O)C1 (stereo not drawn) | 9.99
Nc1cccc(-n2nncc2-c2ccccc2)c1 | -15.8
CC1CCCCN1C(=O)COc1ccccc1F (stereo not drawn) | 7.06
O=C1COc2ccc(C(=O)c3ccccc3C(=O)NCc3ccco3)cc2N1 | 2.72
O=C(/C=C/c1ccc(OCCCF)cc1)N1CCN(Cc2ccccc2)CC1 | -4.73
Cc1ccccc1OCC(=O)NN1C(=O)C2C3C=CC(O3)C2C1=O (stereo not drawn) | 11.1
Cc1ccc(N(Cc2cc(=O)[nH]c3ccccc23)C(=O)C(C)C)cc1 | 0.865
Cc1nc(N)nc(-c2ccccc2O)n1 | 17.5
CCc1ccc(OCC(=O)OCC(=O)NCCNC(=O)COC(=O)COc2ccc(CC)cc2)cc1 | 15.4
Cc1ccc(N=C2SC(C(=O)Nc3ccc(OC(F)(F)F)cc3)C(N)=C2C(=O)Nc2c(C)cc(C)cc2C)cc1 (stereo not drawn) | 8.87
O=C(C1CC=CCC1)N1CCN(C(=O)C2CC=CCC2)CC1 (stereo not drawn) | 13.2
COc1cc(OC)cc(C(=O)NC(C(=O)NCCN(C)C)C23CC4CC(CC(C4)C2)C3)c1 (stereo not drawn) | 6.6
CC(C)C(c1nnnn1C1CCCCC1)N1CCN(C(=O)c2ccco2)CC1 (stereo not drawn) | 4.48
COc1cc(CNC2CCCCCC2)cc(OC)c1OC | 2.94

SMILES | hERG current change (%, negative = inhibition) at 1uM [%]
Oc1oc(-c2ccco2)nc1C=Nc1cccc(Cl)c1 | 8.03
CC(=O)Nc1nc(SCc2cccc3ccccc23)n[nH]1 | 10.9
Cn1cc(Cl)c(C(=O)Nc2cccc(Cl)c2Cl)n1 | 10.3
CCC(Sc1nc2c(cnn2-c2ccc(Cl)cc2)c(=O)[nH]1)C(=O)OC (stereo not drawn) | 7.35
COC(=O)c1nc(N)sc1-c1ccc(Cl)cc1 | 14.4
NC(=O)COn1c(SCC(N)=O)nc2ccccc2c1=O | 12.8
Cc1cc[n+](CC(=O)Nc2ccccc2)cc1.[Br-] | 19.7
CC(C(=O)NCCCc1ccccc1)n1cccc1C(=O)c1ccccc1 (stereo not drawn) | 10.3
COc1ccc(/C=N\NC(=O)c2ccc([N+](=O)[O-])cc2)cc1COc1c(F)c(F)cc(F)c1F | 10.6
CCCN(CCC)C(=O)c1ccc2c(c1)S(=O)(=O)c1ccccc1C2=O | -3.2
CC(=O)Nc1ccc(NC(=O)CSc2ccc(C)cc2)cc1 | 6.31
CCC(C)NC(=O)NC(=O)N(C1CCCCC1)S(C)(=O)=O (stereo not drawn) | 1.38
C=C(C)Cn1c(CCNC(=O)CCC)nc2ccccc21 | 21.1
Cn1c(=O)[nH]c(=O)c2c1nc(Br)n2CC(O)COc1ccccc1 (stereo not drawn) | 6.5
CC(OC(=O)CCc1nc2ccccc2[nH]c1=O)C(=O)c1ccccc1 (stereo not drawn) | 8.12
CCCN1C2CCCC1CC(NC(=O)c1cc(OC)cc(OC)c1)C2 (stereo not drawn) | 3.76
Cc1c(OCC(=O)NCC(O)c2ccccc2)ccc2c(-c3ccccc3)cc(=O)oc12 (stereo not drawn) | 10.3
Nc1cc(=O)nc(SCc2ccccc2)n1Cc1ccco1 | -7.62
O=[N+]([O-])c1cccc2ccc(/C=C/c3ccc(C(F)(F)F)cc3)nc12 | 1.61
COc1ccccc1-c1ccc(/C=C2/C=C(C)OC2=O)o1 | 27.1
CCCc1cc(=O)oc2cc(C)cc(OCC(=O)NCCCN3CCOCC3)c12 | 12.9
CC1CCCC/C1=N\NC(=S)Nc1cccnc1 (stereo not drawn) | 12.2
O=[N+]([O-])c1ccc(S(=O)(=O)Nc2ccc(S(=O)(=O)N3CCCC3)cc2)cc1 | 7.82

SMILES | hERG current change (%, negative = inhibition) at 1uM [%]
Cc1c(C(=O)Nc2cccc(Cl)c2)cn2c(nc3ccccc32)c1C#N | 11.5
Clc1ccc(C(c2ccc(Cl)cc2)n2cc[n+](CC(OCc3ccc(Cl)cc3Cl)c3ccc(Cl)cc3Cl)c2)cc1.[Cl-] (stereo not drawn) | -6.49
CC(=O)NC(CC(=O)NCCCn1ccc2ccccc21)c1ccccc1 (stereo not drawn) | 19.8
CCOC(=O)C1CCN(CCC(=O)Nc2ccc(C)cc2)CC1 | 1.98
N/C(=N\OC(=O)c1cccs1)C1(c2ccc(Cl)cc2Cl)CC1 | 12.8
Cc1ccc(S(=O)(=O)c2c(C)cc(C)nc2Cl)c(C)c1 | -1.51
Cc1c(S(=O)(=O)N2CCN(c3ccccc3)CC2)c(=O)n(C)c(=O)n1C | 7.26
Cc1cc(C(=O)NC2CC(C)(C)Cc3c2cnn3-c2ccccc2C)c(C)o1 (stereo not drawn) | 4.68
COc1ccccc1-n1ccnc(SCC(=O)NCc2ccccc2Cl)c1=O | 14.6
COc1cc(/C=N/NC(=O)c2ccc(-c3ccccc3)cc2)cc(OC)c1OC | -0.437
COc1ccc(NC(=O)CSc2nnc(NC(=O)C3CC3)s2)cc1OC | 1.97
Cc1cccc(C(=O)NCC(=O)OCC(=O)N2CCN(S(=O)(=O)c3ccc(C)cc3C)CC2)c1 | -12.4
CCCC(=O)Nc1ccc(NC(=O)c2cccc(OC)c2)nc1 | 3.64
CS(=O)(=O)N(CC(=O)NCC1CCCO1)c1ccc(F)c(Cl)c1 (stereo not drawn) | -5.4
CNC(=S)N1CCC(NC(=O)C(Cc2ccccc2)NC(C)=O)CC1 (stereo not drawn) | 5.77
O=C(Nc1nnc(SCc2ccc(Cl)cc2)s1)C1CC(=O)N(Cc2ccccc2)C1 (stereo not drawn) | 17
C=CCNc1nc(N)c([N+](=O)[O-])c(N2CCCCCC2)n1 | 0.263
N#Cc1ccccc1OCC(=O)Nc1c(C(=O)C2CC2)oc2ccccc12 | 8.85
CC(C)NC(=O)c1ccc(-c2ccccc2C(F)(F)F)o1 | 1.66
COCc1cc(Sc2c(Cl)cccc2Cl)nc(-c2ccccc2)n1 | 14.8
Cc1cc(NC(=O)CCC(=O)N(CC(=O)NCC2CCCO2)Cc2ccc(F)cc2)no1 (stereo not drawn) | 6.02
CC(=O)c1ccc(NC(=O)c2cnsn2)cc1 | 6.31
COCCn1c(Cc2ccccc2)nnc1SCC(=O)NC(C)(C)C | 15.5

SMILES | hERG current change (%, negative = inhibition) at 1uM [%]
O=C(Cc1ccccc1)Nc1nc2ccccc2[nH]1 | 8.46
CN(C)CCOC(C)(c1ccccc1)c1ccccn1.O=C(O)CCC(=O)O (stereo not drawn) | 10.5
O=S(=O)(N/N=C\c1cccnc1)c1ccccc1 | 11.6
Cc1ccc(SCCNC(=O)c2ccccc2F)cc1 | 11
O=[N+]([O-])c1cccc2c(N3CCCC3)ccnc12 | -84.4
CCOC(=O)c1ccc(-n2c(C)nc3c(cnn3-c3ccccc3Cl)c2=O)cc1 | 5.79
COc1cc(NS(=O)(=O)c2ccc(NC(=S)NC(=O)/C=C/c3ccc(F)cc3)cc2)ncn1 | 3.23
CCOC(=O)CSc1n[nH]c(NC(=O)c2cccc(C)c2)n1 | -2.38
Cc1cc(N2CCN(C)CC2)nc2ccc(NC(=S)N3CCC4(CC3)OCCO4)cc12 | -0.018
O=C1OC(=O)c2cc([N+](=O)[O-])ccc21 | 17.8
COc1ccc(CCNC(=O)c2c(C)nn(CC(C)C)c2Cl)cc1OC | 4.57
COc1ccc(C/C(C)=N/NC(=O)c2ccc(C)cc2C)cc1 | 4.76
O=C(Nc1ccccc1N1CCOCC1)c1ccccc1[N+](=O)[O-] | 4.36
O=C(NCCCNC(=O)c1ccc(-c2cccc(Cl)c2)o1)c1cnccn1 | -12.5
CCOC(=O)CC(=O)CSc1nc2c(sc(=S)n2-c2ccccc2)c(=O)[nH]1 | 8.72
CC(=O)N1CCN=C1SCc1ccccc1F | 14
CC(C)(C)c1cc(NC(=O)c2ccco2)n(-c2ccccc2)n1 | 11.4
Cc1c(Cl)cccc1NC(=O)CCC(=O)NNC(=O)c1ccco1 | 18.6
Cc1nn(-c2ccccc2)c(C)c1NC(=O)COC(=O)c1ccc(NC(=O)CC#N)cc1 | 14.2
C=CCc1cccc(CNc2nc3ccccc3n2CCC)c1O | 12.6
COc1ccc(CCNS(=O)(=O)CCNC(=O)c2ccc(OC)cc2)cc1 | -0.204
